Assay results published in the RNAGym collection of RNA variant scans (doi:10.7554/elife.90254).
The source gives no read counts; variants with many changes may rest on few reads.

B1: LINE1-mini (parent)
chain: GGCAGAGCUCAACACAGCGUGGCAAAGUGGCUGUGGCUAGACUGCC

Variants of: B1
Assay: self-cleavage, relative activity (ratio to wild type); higher = more cleavage; in vitro, sequencing; the parent is a self-cleaving ribozyme
In the case of G2U A14C U32A, the self-cleavage is reported as 0.01. A6U C31A G33U U38A showed a self-cleavage of 0.02. Work on G2A G17U G19A C45U yielded a self-cleavage of 0.54. Work on G1C C18A G22C yielded a self-cleavage of 0.04. In the case of G19C A25U G36A C46U, the self-cleavage is reported as 0.07. Variant C8U A12U G27U G29A has a self-cleavage of 0.04. With A16U G19U C23U U32A C46A the self-cleavage was 0.25. G22U A24G G29A gave a self-cleavage of 0.94. Work on A11C A12U A14C U34C C45U yielded a self-cleavage of 0.05. C18A G22C G36C showed a self-cleavage of 0.11. In the case of U9G A11C A26G C31U, the self-cleavage is reported as 0. For C10G A25U U34A, the self-cleavage was 0.02. Variant G7A C8A U20A has a self-cleavage of 0.19. Work on C18A U28C G33C yielded a self-cleavage of 0.02. Variant G2C C23G G35C U38C has a self-cleavage of 0.06. G7A G19C C31U A41U showed a self-cleavage of 0.05. A11U G19C G30A showed a self-cleavage of 0.13. Work on G1C A4C C10U G29C C45U yielded a self-cleavage of 0.01. In the case of G2C A16C G21C, the self-cleavage is reported as 0.11. Variant G2C G7C A12G G17U has a self-cleavage of 0.03. For G30A G35C G40A, the self-cleavage was 0.03. C3G G21C G22C C23U U34G showed a self-cleavage of 0.09. For G1U G7C A14U, the self-cleavage was 0.08. C18A A25G G30C gave a self-cleavage of 0.11. Variant C15G A24G G30C U34C G35U has a self-cleavage of 0. Variant C3G A4U G7C G29C G40A has a self-cleavage of 0.02. Variant G1C C15A G17U has a self-cleavage of 0.01. A11C A12G C15U G27U C42A gave a self-cleavage of 0. With U9G C15A G17U G33U U34A the self-cleavage was 0.09. In the case of C15A G30A C37U U38G A39G G40U, the self-cleavage is reported as 0.02. G2A A6U C10A C23A G40U gave a self-cleavage of 0.01. In the case of A14C G30C G40U, the self-cleavage is reported as 0.06. Variant C8U C10G C18A C23U has a self-cleavage of 0.01. Work on C3U G22C C31A G33C yielded a self-cleavage of 0.08. With U9A C15A C23A the self-cleavage was 0.05. C3A A14G G19C G30U G40U A41G gave a self-cleavage of 0.43. For C13G G17C C23G C42A, the self-cleavage was 0.04. Work on C3G G5C A14C A39U yielded a self-cleavage of 0.09. With C13A C18U U34C C45G the self-cleavage was 0.06. For G5A C10A U28C, the self-cleavage was 0.02. In the case of C10G A25U G40A, the self-cleavage is reported as 0.06. In the case of G7U C10A G22C A26G C31G U32A, the self-cleavage is reported as 0.01. A26G G33C G36U gave a self-cleavage of 0.02. C3U G30C G36C C37U G40C C42G gave a self-cleavage of 0.02. With C23A A25G C45U C46G the self-cleavage was 0.17. With C13G U32A G35U G36U A41U the self-cleavage was 0.03. With C23G G30C G33C the self-cleavage was 0.01. A6G A26G C31A G36U U43A gave a self-cleavage of 0.02. C3A G21U C37G G40U showed a self-cleavage of 0.21. For C8U G17U U20G A25G A26U G36A, the self-cleavage was 0.04. In the case of C8G A16U G22U, the self-cleavage is reported as 0.03. C10U A24C A25C gave a self-cleavage of 0.25. With G5A C18U U43C the self-cleavage was 0.1. G2U C3A G35A showed a self-cleavage of 0.08. Variant C8A A16C C23U G30U C46A has a self-cleavage of 0.28. C3G A26C C37G C42A G44C showed a self-cleavage of 0.02. G5U C18U U34G showed a self-cleavage of 0. C13U G22C U38A gave a self-cleavage of 0.05. With G1U U9A G33C the self-cleavage was 0.01. Variant G5A C8A G21A has a self-cleavage of 2.34. With A6U G35A G36A the self-cleavage was 0.08. In the case of G1U C15A A16U, the self-cleavage is reported as 0.1. For C8A C10A U28A G30A C46A, the self-cleavage was 0.01. Work on C15U A25U G30U G40U yielded a self-cleavage of 0.08. With A6G A12C G19C G35U the self-cleavage was 0.02. For C3G G30U C31G, the self-cleavage was 0.18. G2A C13A A26G gave a self-cleavage of 0.47. With A6C C8U G27C C46U the self-cleavage was 0.21. With G5A C13A G27U U34C G35C the self-cleavage was 0.07. With G22C U34A C37G C42A U43G the self-cleavage was 0.01. Work on U9G A16U A24U G30C yielded a self-cleavage of 0. Variant A6U G17A U28A U43G has a self-cleavage of 0.44. A11G A16C G21A gave a self-cleavage of 0. With G5C C13A C15U the self-cleavage was 0.06. Variant C8G C18U A24C C37A G40U has a self-cleavage of 0.04. Work on C3U G7A A11G G36U C37A yielded a self-cleavage of 0.03. A16G C42G G44U showed a self-cleavage of 0.09. A12G C18G G19U G30A U32C C45G gave a self-cleavage of 0.01. C13A A25U G33U C45A showed a self-cleavage of 0.02. A4U C15G A16C U28C G40C gave a self-cleavage of 0.03. A4C C13A G33C showed a self-cleavage of 0.13. Work on G1C C13U G40A yielded a self-cleavage of 0.01. For A6G G27C G30A G40U, the self-cleavage was 0.06.
